# In all, about 410,000 compounds went through this assay and about 530 (0.13%) were called active. Inconclusive means that the source gave no clear call. Such entries were picked first, then a sample of the others. Calls follow the shape of the dose curve; as a rule, active = well fitted inhibition curve with a large enough effect; inconclusive = small, poorly fitted or top-dose-only effect, or another doubt; inactive = no such curve, though single readings can be large or run the other way. Potencies beside an inconclusive call are fits to weak or partial responses and may not hold up.
# Test: qHTS of GLP-1 Receptor Inverse Agonists: Cytotox Screen
# Settings: HEK293 cAMP-luciferase reporter cells, luminescence, 24 h; activity change, negative = inhibition: at 38.3 µM (top of the series) unless noted
# Summary of the method: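 A 23 nL compound transfer followed 12 hours of cell culture at 37 deg C; exposure then lasted 24 hr. Luciferase assay detection reagent was dispensed and plates read for luminescence after a 12 min room-temperature wait.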
# % is scaled to controls: 0 for no effect and ±100 for the full control effect; potency is read from the fitted curve at half-maximal effect.
SMILES,Potency,"activity change, negative = inhibition"
CCn1cc([N+](=O)[O-])c(C(=O)N2N=C(c3ccc4ccccc4c3)CC2c2cc(Br)ccc2O)n1 (stereo unspecified),"inconclusive: 20 µM [inhibitor, partial curve, poor fit]",
CCOc1ccc(C(O)(CCC(C)C)C(CN2CCOCC2)c2ccccc2)cc1 (stereo unspecified),"inconclusive: 22.4 µM [inhibitor, single point]",
COc1cc(CNCCc2ccccc2)cc(Cl)c1OCc1ccccc1,"inconclusive: 28.2 µM [inhibitor, single point]",
CN(C)CCNc1ncnc2c1sc1nc(-c3ccccc3)c3c(c12)CCCC3,"inconclusive: 11.2 µM [inhibitor, partial curve, poor fit]",
Cc1ccc(C2CC2/C(=N/O)c2ccc(F)cc2)cc1 (stereo unspecified),,inactive: -2.01%
O=C1N[C@H](Cc2ccccc2)COC(=O)[C@@H](Cc2ccc(F)cc2)C/C=C\C[C@H]1CC(=O)N(CCO)Cc1ccccc1,"inconclusive: 0.501 µM [inhibitor, full curve, poor fit]",
COc1ccc(NC(=S)N/N=C/c2cccn2Cc2ccc(F)cc2Cl)cc1,"inconclusive: 4.47 µM [inhibitor, full curve, poor fit]",
CCOc1ccc(C(=O)Nc2ccc3nc(SCC(=O)N(C)c4ccccc4)sc3c2)cc1,,inactive: -7.5%
CCN(CC)CCN(Cc1cc2cc(C)ccc2[nH]c1=O)C(=O)Nc1ccccc1OC,"inconclusive: 11.2 µM [inhibitor, partial curve, poor fit]",
CC1CCN(S(=O)(=O)c2ccc3nc(Nc4cccc(C(F)(F)F)c4)ccc3c2)CC1,"inconclusive: 8.91 µM [inhibitor, partial curve, poor fit]",
NC(=S)N=Nc1c(O)[nH]c2ccc(F)cc12,"inconclusive: 28.2 µM [inhibitor, single point]",
O=CC1=C(c2ccccc2)Oc2ccccc2O1,"inconclusive: 10 µM [inhibitor, partial curve, poor fit]",
COc1ccccc1C1=Nc2cccc3cccc(c23)N1,"inconclusive: 20 µM [inhibitor, single point]",
CC(=O)Nc1ccc(Nc2ccc3nonc3c2[N+](=O)[O-])cc1,"inconclusive: 8.91 µM [inhibitor, partial curve, poor fit]",
CNC(=S)N/N=C1\CC(c2ccccc2)Oc2ccccc21 (stereo unspecified),"inconclusive: 7.94 µM [inhibitor, partial curve, poor fit]",
CC/C(=N\NC(=O)c1cc(C)nc2ccccc12)c1ccc(C)s1,"inconclusive: 8.91 µM [inhibitor, partial curve, poor fit]",
CCCNC(=O)C1(C)CCN(C(=O)c2ccc(OC)cc2OC)C1 (stereo unspecified),,inactive: 2.69%
CCN1CCC(CNCc2cn(-c3ccc(OC)cc3)nc2-c2ccccc2Cl)C1 (stereo unspecified),"inconclusive: 28.2 µM [inhibitor, single point]",
CCCSCCCNC(=O)c1ccc(C)c(NC(=O)C2=C(C)OCCS2)c1,"inconclusive: 28.2 µM [inhibitor, single point]",
COc1ccc2sc(N(CCN(C)C)C(=O)/C=C/c3cccs3)nc2c1,"inconclusive: 10 µM [inhibitor, single point]",
CCCC[C@@H]1CN=C(N)N1CCc1cc(C(F)(F)F)cc(C(F)(F)F)c1,"inconclusive: 20 µM [inhibitor, single point]",

SMILES,Potency,"activity change, negative = inhibition"
O=C(CCc1nnc2n(Cc3ccc(Cl)cc3)c(=O)c3ccccc3n12)N1CCN(c2ccccn2)CC1,,inactive: 1.5%
COc1ccc(C(=O)Nc2ccc(NC(=O)c3ccccc3)cc2)cc1S(=O)(=O)N1CCOCC1,"inconclusive: 11.2 µM [inhibitor, partial curve, poor fit]",
COc1ccc(CCNC(=O)c2c(C)nn(-c3ccc(F)cc3)c2-n2cccc2)c(OC)c1OC,,inactive: -12.3%
COc1ccc2[nH]c3c(=O)n(CCCC(=O)NC4CCCCC4C)c(=S)[nH]c3c2c1 (stereo unspecified),,inactive: -0.223%
CCOc1cc(C(=O)NC(=S)Nc2cccnc2)cc(OCC)c1OCC,"inconclusive: 11.2 µM [inhibitor, single point]",
CN(CC(=O)Nc1ccccc1Cl)C(=O)COC(=O)c1nc(Cl)c(Cl)c(Cl)c1Cl,"inconclusive: 28.2 µM [inhibitor, single point]",
O=C1[C@@H]2[C@H](C(=O)N1CC(O)COCc1ccccc1)C1C=C[C@H]2C1 (stereo partly specified),,inactive: -0.477%
Cc1c(C#N)c(O)[nH]c(=O)c1N=Nc1ccc(Br)cc1C(=O)O,"inconclusive: 20 µM [inhibitor, single point]",
CC1CCN(CCCCOc2ccc(C(=O)c3ccccc3)cc2)CC1,"inconclusive: 28.2 µM [inhibitor, single point]",
COc1cc(/C=C2\SC(=S)N(CC(=O)Nc3ccccn3)C2=O)cc(OC)c1OC,"inconclusive: 12.6 µM [inhibitor, single point]",
CN(C(=O)c1ccc(NC(=O)Cc2cccc(NC(=O)C3CCN(C(=O)CCc4ccccc4)CC3)c2)cc1)C1CCCC1,"inconclusive: 28.2 µM [inhibitor, single point]",
Cc1ccc(C(=O)O/N=C(\N)c2ccccn2)cc1C,"inconclusive: 1.58 µM [inhibitor, partial curve, poor fit]",
O=C(CCCc1c[nH]c2ccccc12)Nc1ncccc1O,"inconclusive: 28.2 µM [inhibitor, single point]",
Cc1cccc(N2CCN(C(=O)c3ccc4c(c3)NC(=O)C(CSCc3cccc(F)c3)N4)CC2C)c1 (stereo unspecified),"inconclusive: 1 µM [inhibitor, full curve, poor fit]",
C/C=C(/C)C(=O)OC1CC(C)(C)C[C@H]2C3=CC[C@@H]4[C@@]5(C)CCC(O[C@@H]6O[C@@H](C(=O)O)[C@@H](O)C(O[C@@H]7OC[C@H](O)[C@@H](O)[C@@H]7O[C@@H]7OC(CO)C(O)[C@@H](O)[C@@H]7O)C6O[C@@H]6OC(CO)C(O)C(O)C6O)[C@@](C)(CO)[C@@H]5CC[C@]4(C)[C@]3(C)CC(O)[C@@]12CO (stereo partly specified),"inconclusive: 11.2 µM [inhibitor, single point]",
COc1ccc(Cl)c(NC(=O)C/C(C)=N/NC(=O)CCc2ccccc2)c1,,inactive: -23.3%
S=C(NCCc1ccccn1)Nc1cc(Cl)cc(Cl)c1,"inconclusive: 11.2 µM [inhibitor, single point]",
Cc1cccc(C(=O)Nc2ccc(S(=O)(=O)N3CCOCC3)cc2C)c1,"inconclusive: 7.94 µM [inhibitor, single point]",
Cc1noc(C)c1C(=O)Nc1nnc(CC(C)C)s1,"inconclusive: 2 µM [inhibitor, partial curve, poor fit]",
Cc1cc(F)ccc1-c1cc(C(=O)NCc2ccccc2)[nH]n1,,inactive: 1.8%
COc1ccc(CC(=O)Nc2nc(-c3ccc(F)c(F)c3)cs2)cc1OC,"inconclusive: 2.51 µM [inhibitor, partial curve, poor fit]",

SMILES,Potency,"activity change, negative = inhibition"
COc1cc(/C=C/c2nnc3c4ccccc4ncn23)cc(OC)c1OC,"inconclusive: 20 µM [inhibitor, single point]",
O=C(NC(=S)Nc1ccccc1N1CCOCC1)c1cccs1,"inconclusive: 11.2 µM [inhibitor, single point]",
COc1ccccc1/C=C/C(=O)NC(=S)NC(C)C,"inconclusive: 12.6 µM [inhibitor, single point]",
CCOc1ccc(NC(=S)NCCCN2CCN(C3CCCCC3)CC2)cc1,"inconclusive: 8.91 µM [inhibitor, partial curve, poor fit]",
Cc1cc(OCC(=O)N2CCOCC2)ccc1NC(=O)c1ccccc1C,,inactive: -10.2%
COc1ccc(CCCNC(=O)C2Cc3c(-c4cccc(NC(C)=O)c4)ccnc3O2)cc1 (stereo unspecified),"inconclusive: 8.91 µM [inhibitor, partial curve, poor fit]",
Cc1cccc(Cn2c(=O)n(CCc3ccccc3)c(=O)c3sc4ccccc4c32)c1,,inactive: -2.08%
CC(=O)c1cccc(-c2ccnc3c2CC(C(=O)NCc2ccco2)O3)c1 (stereo unspecified),"inconclusive: 2.24 µM [inhibitor, partial curve, poor fit]",
COC1(c2cc(-c3ccccc3)nc(N)n2)CCCCC1,"inconclusive: 10 µM [inhibitor, single point]",
COc1ccc(OC)c(N(CC(=O)NCC2CCCO2)S(=O)(=O)c2ccccc2)c1 (stereo unspecified),"inconclusive: 3.16 µM [inhibitor, full curve]",
COc1ccc(S(=O)(=O)N(CC(=O)O)c2ccccc2)cc1,"inconclusive: 15.8 µM [inhibitor, single point]",
CC1(C)CC(=O)C2=C(C1)NC(Nc1nc3ccccc3o1)=NC2c1ccccn1 (stereo unspecified),"inconclusive: 10 µM [inhibitor, partial curve, poor fit]",
CCOC(=O)C(NC(=O)c1ccccc1Cl)(Nc1sc2c(c1C(N)=O)CCC2)C(F)(F)F (stereo unspecified),"inconclusive: 28.2 µM [inhibitor, single point]",
CCOC(=O)c1c(C)[nH]c(CCC(=O)Nc2ccc(N(CC)CC)cc2C)c1C,,inactive: 13.9%
O=C(N=C1N=C2C=CC=CN2Cc2ccccc21)c1ccc(S(=O)(=O)N2CCOCC2)cc1,,inactive: -15.5%
Cc1cc(C)nc(NC(=S)Nc2ccc(F)cc2F)c1,"inconclusive: 0.501 µM [inhibitor, full curve, poor fit]",
CCOc1ccc(C(C)NC(=S)NCc2ccc(Cl)cc2)cc1 (stereo unspecified),"inconclusive: 11.2 µM [inhibitor, single point]",
O=C(NN=C1CCCCCCC1)c1ccc(F)cc1,,inactive: -10.8%
COc1ccc(/C=C/C(=O)Nc2ccc(Cl)c(Cl)c2)cc1OC,"inconclusive: 31.6 µM [inhibitor, single point]",

# Source: PubChem BioAssay AID624418 (National Center for Advancing Translational Sciences (NCATS), 2012)
